According to the supplement of paper PMC10037445:
Whole data set: some 2,900 compounds, median “IRF Lucia reporter activity, fold change vs agonist alone” near 0.9, cut for the highest 2% near 2.8. This is one part of the list.

How the values were obtained:
[1] = system: RAW-Dual; assay: IRF Lucia reporter activity, fold change vs agonist alone; cytotoxicity flag (confluency mask): not cytotoxic; higher = enhanced IRF activity
Summary of the method: (§1)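 RAW-Dual macrophages (50,000 cells/well in DMEM, 384-well plates) received 50 nL of library stock by pin tool, then a PRR agonist 1 h later, and were kept at 37 °C, 5% CO2. After 20 hours, supernatant was read for IRF by QuantiLuc luminescence and for NF-κB by QuantiBlue absorbance at 620 nm. Reporter activity is fold change over agonist-alone wells. Cytotoxic wells had IncuCyte confluency below 70% of agonist controls in both mask sets.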

[2] = system: RAW-Dual; assay: IRF Lucia reporter activity, fold change vs agonist alone; higher = enhanced IRF activity; conditions: cytotoxicity flag (confluency mask): not cytotoxic, agonist: MPLA (TLR4) […]
Summary of the method: as §1

[3] = agonist: 3'3'-cGAMP (STING) 10 ug/mL
[4] = library stock concentration (final ~1000-fold dilution): 10 mM

## C=C1CCC2C(C)(CO)C(O)CC[C@@]2(C)[C@@H]1C/C=C1/C(=O)OCC1O (stereo partly drawn) (library stock concentration (final ~1000-fold dilution): 10 mM)
[1]; [3]
  IRF Lucia reporter activity: 0.0401
[1]; agonist: LPS (TLR4) 0.1 ug/mL
  IRF Lucia reporter activity: 0.177

## CN(C)CCN(Cc1ccccc1)c1ccccn1.Cl
[2]; library stock concentration (final ~1000-fold dilution): 10 mM water
  IRF Lucia reporter activity: 1.39

## CN(C)CCN(Cc1ccccc1)c1ccccn1.Cl (library stock concentration (final ~1000-fold dilution): 10 mM water)
[1]; [3]
  IRF Lucia reporter activity: 1.35
[1]; agonist: LPS (TLR4) 0.1 ug/mL
  IRF Lucia reporter activity: 0.908

## c1cc(-c2cnn3cc(-c4ccc(OCCN5CCCCC5)cc4)cnc23)ccn1 (library stock concentration (final ~1000-fold dilution): 2 mM)
[1]; [3]
  IRF Lucia reporter activity: 0.606
[1]; agonist: LPS (TLR4) 0.1 ug/mL
  IRF Lucia reporter activity: 0.503

## O=C1[C@H](CC[C@H](O)c2ccc(F)cc2)[C@@H](c2ccc(O)cc2)N1c1ccc(F)cc1 (library stock concentration (final ~1000-fold dilution): 10 mM)
[1]; [3]
  IRF Lucia reporter activity: 0.917
[1]; agonist: LPS (TLR4) 0.1 ug/mL
  IRF Lucia reporter activity: 1.34

## CC1COCCN1c1cc(C2(S(C)(=O)=O)CC2)nc(-c2cccc3[nH]ccc23)n1 (stereo not drawn)
[2]; [4]
  IRF Lucia reporter activity: 0.91

## CC1COCCN1c1cc(C2(S(C)(=O)=O)CC2)nc(-c2cccc3[nH]ccc23)n1 (stereo not drawn) (library stock concentration (final ~1000-fold dilution): 10 mM)
[1]; [3]
  IRF Lucia reporter activity: 0.263
[1]; agonist: LPS (TLR4) 0.1 ug/mL
  IRF Lucia reporter activity: 0.624

## Brc1c(Br)c(Br)c2[nH]nnc2c1Br
[2]; [4]
  IRF Lucia reporter activity: 0.902

## Brc1c(Br)c(Br)c2[nH]nnc2c1Br (library stock concentration (final ~1000-fold dilution): 10 mM)
[1]; [3]
  IRF Lucia reporter activity: 0.812
[1]; agonist: LPS (TLR4) 0.1 ug/mL
  IRF Lucia reporter activity: 0.755

## Cc1cc(-c2ncc(CC(=O)Nc3ccc(-c4cnccn4)cn3)cc2C)ccn1
[2]; [4]
  IRF Lucia reporter activity: 0.884

## Cc1cc(-c2ncc(CC(=O)Nc3ccc(-c4cnccn4)cn3)cc2C)ccn1 (library stock concentration (final ~1000-fold dilution): 10 mM)
[1]; [3]
  IRF Lucia reporter activity: 0.983
[1]; agonist: LPS (TLR4) 0.1 ug/mL
  IRF Lucia reporter activity: 1.01

## CN1CCC(NC(=O)c2cc(-c3c(O)cc(O)cc3Oc3ccc([N+](=O)[O-])cc3)on2)CC1
[2]; [4]
  IRF Lucia reporter activity: 1.04

## CN1CCC(NC(=O)c2cc(-c3c(O)cc(O)cc3Oc3ccc([N+](=O)[O-])cc3)on2)CC1 (library stock concentration (final ~1000-fold dilution): 10 mM)
[1]; [3]
  IRF Lucia reporter activity: 0.883
[1]; agonist: LPS (TLR4) 0.1 ug/mL
  IRF Lucia reporter activity: 0.22

## COc1cc2ncnc(Oc3ccc(CC(=O)Nc4cnn(C(C)C)c4)cc3)c2cc1OC
[2]; [4]
  IRF Lucia reporter activity: 0.67

## COc1cc2ncnc(Oc3ccc(CC(=O)Nc4cnn(C(C)C)c4)cc3)c2cc1OC (library stock concentration (final ~1000-fold dilution): 10 mM)
[1]; [3]
  IRF Lucia reporter activity: 0.758
[1]; agonist: LPS (TLR4) 0.1 ug/mL
  IRF Lucia reporter activity: 0.474

## C=CCCC(=O)O (library stock concentration (final ~1000-fold dilution): 10 mM)
[1]; [3]
  IRF Lucia reporter activity: 0.708
[1]; agonist: LPS (TLR4) 0.1 ug/mL
  IRF Lucia reporter activity: 0.883

## C=CCCC(=O)O
[2]; [4]
  IRF Lucia reporter activity: 1.05

## CC(C)(C)/[N+]([O-])=C/c1ccc(S(=O)(=O)O)cc1S(=O)(=O)O (library stock concentration (final ~1000-fold dilution): 10 mM)
[1]; [3]
  IRF Lucia reporter activity: 0.879
[1]; agonist: LPS (TLR4) 0.1 ug/mL
  IRF Lucia reporter activity: 1.34

## COC(=O)NC(C(=O)N1CCCC1c1ncc(-c2ccc3c(c2)OC(c2ccccc2)n2c-3cc3cc(-c4cnc(C5CCCN5C(=O)C(NC(=O)OC)C(C)C)[nH]4)ccc32)[nH]1)C(C)C (stereo not drawn)
[2]; [4]
  IRF Lucia reporter activity: 1.01

## COC(=O)NC(C(=O)N1CCCC1c1ncc(-c2ccc3c(c2)OC(c2ccccc2)n2c-3cc3cc(-c4cnc(C5CCCN5C(=O)C(NC(=O)OC)C(C)C)[nH]4)ccc32)[nH]1)C(C)C (stereo not drawn) (library stock concentration (final ~1000-fold dilution): 10 mM)
[1]; [3]
  IRF Lucia reporter activity: 1.07
[1]; agonist: LPS (TLR4) 0.1 ug/mL
  IRF Lucia reporter activity: 1.16

## COc1ncc(-c2ccc3nccc(-c4ccnnc4)c3c2)cc1NS(=O)(=O)c1ccc(F)cc1F (library stock concentration (final ~1000-fold dilution): 10 mM)
[1]; [3]
  IRF Lucia reporter activity: 1.09
[1]; agonist: LPS (TLR4) 0.1 ug/mL
  IRF Lucia reporter activity: 3.52

## COc1ncc(-c2ccc3nccc(-c4ccnnc4)c3c2)cc1NS(=O)(=O)c1ccc(F)cc1F
[2]; [4]
  IRF Lucia reporter activity: 1.11

## CNCCC(Oc1ccccc1C)c1ccccc1.Cl (stereo not drawn)
[2]; [4]
  IRF Lucia reporter activity: 1.06

## CNCCC(Oc1ccccc1C)c1ccccc1.Cl (stereo not drawn) (library stock concentration (final ~1000-fold dilution): 10 mM)
[1]; [3]
  IRF Lucia reporter activity: 0.969
[1]; agonist: LPS (TLR4) 0.1 ug/mL
  IRF Lucia reporter activity: 1.09

## CN1CCCN=C1/C=C/c1cccc(O)c1.O=C(O)c1cc2ccccc2c(Cc2c(O)c(C(=O)O)cc3ccccc23)c1O
[2]; [4]
  IRF Lucia reporter activity: 0.491

## CN1CCCN=C1/C=C/c1cccc(O)c1.O=C(O)c1cc2ccccc2c(Cc2c(O)c(C(=O)O)cc3ccccc23)c1O (library stock concentration (final ~1000-fold dilution): 10 mM)
[1]; [3]
  IRF Lucia reporter activity: 0.401
[1]; agonist: LPS (TLR4) 0.1 ug/mL
  IRF Lucia reporter activity: 0.421

## CCCCC(=O)N(Cc1ccc(-c2ccccc2-c2nn[nH]n2)cc1)C(C(=O)O)C(C)C.CCOC(=O)C(C)CC(Cc1ccc(-c2ccccc2)cc1)NC(=O)CCC(=O)O (stereo not drawn) (library stock concentration (final ~1000-fold dilution): 10 mM)
[1]; [3]
  IRF Lucia reporter activity: 0.572
[1]; agonist: LPS (TLR4) 0.1 ug/mL
  IRF Lucia reporter activity: 0.731
